Tested on: CYP3A
Settings: human liver microsomes; kinact and KI cannot be determined

CN(C(=O)c1ccc(F)cc1C(F)(F)F)C1CCN(c2nnc(-c3ccnn3C)c3ccccc23)CC1.Cl [Example 1a, 4-Fluoro-N-methyl-N-(1-(4-(1-methyl-1H-pyrazol-5-yl)phthalazin-1-yl)piperidin-4-yl)-2-(trifluoromethyl)benzamide hydrochloride]
mechanism based inhibitor of CYP3A4 (conclusion): not a mechanism based inhibitor of CYP3A4

From patent publication US9000023B2, “Disubstituted phthalazine hedgehog pathway antagonists” (Eli Lilly and Company, priority 2009, dated 2015)
